Assay results: article PMC6779278
No constants are given. Whether binding was seen depends on the method and setting. For some of these results: In cells and extracts the contact can be indirect. Some entries that bind do so weakly or less than the wild type. Tags and fused reporters may be left off the sequences shown.

Chains of the proteins cited; added tags and fusions are not shown. Lines headed by an entry give the natural chain unless they say otherwise; changes in a name come on top. Residues count along the entry.
UniProt Q9VEN2: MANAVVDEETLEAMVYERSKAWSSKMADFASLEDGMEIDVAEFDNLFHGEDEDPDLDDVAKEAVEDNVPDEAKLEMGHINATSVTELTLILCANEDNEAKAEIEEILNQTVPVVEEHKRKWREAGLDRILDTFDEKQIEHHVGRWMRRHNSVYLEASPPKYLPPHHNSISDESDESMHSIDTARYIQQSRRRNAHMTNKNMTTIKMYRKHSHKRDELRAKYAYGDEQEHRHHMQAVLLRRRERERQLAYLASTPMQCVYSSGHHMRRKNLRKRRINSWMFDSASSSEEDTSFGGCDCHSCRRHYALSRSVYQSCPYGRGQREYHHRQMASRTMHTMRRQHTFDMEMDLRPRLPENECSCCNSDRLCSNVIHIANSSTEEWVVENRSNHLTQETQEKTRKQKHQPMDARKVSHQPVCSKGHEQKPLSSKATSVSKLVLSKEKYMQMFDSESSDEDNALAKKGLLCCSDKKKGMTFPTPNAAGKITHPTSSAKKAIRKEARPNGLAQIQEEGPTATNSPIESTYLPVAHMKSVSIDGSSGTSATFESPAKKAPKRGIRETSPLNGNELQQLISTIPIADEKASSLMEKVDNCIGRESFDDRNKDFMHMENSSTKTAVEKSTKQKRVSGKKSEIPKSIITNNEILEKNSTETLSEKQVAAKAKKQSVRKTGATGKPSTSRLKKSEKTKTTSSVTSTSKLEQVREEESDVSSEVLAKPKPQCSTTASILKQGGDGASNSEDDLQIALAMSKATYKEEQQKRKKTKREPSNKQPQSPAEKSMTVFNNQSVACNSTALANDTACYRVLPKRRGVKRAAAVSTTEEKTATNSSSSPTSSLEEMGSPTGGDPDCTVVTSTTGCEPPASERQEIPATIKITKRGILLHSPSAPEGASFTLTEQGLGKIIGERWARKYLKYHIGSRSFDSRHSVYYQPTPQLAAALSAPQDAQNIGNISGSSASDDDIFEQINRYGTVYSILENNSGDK
CAL1 C-terminus (amino acids 680-979), yeast two-hybrid fusion (pMM6): residues 680-979 of Q9VEN2
UniProt Q9V6Q2: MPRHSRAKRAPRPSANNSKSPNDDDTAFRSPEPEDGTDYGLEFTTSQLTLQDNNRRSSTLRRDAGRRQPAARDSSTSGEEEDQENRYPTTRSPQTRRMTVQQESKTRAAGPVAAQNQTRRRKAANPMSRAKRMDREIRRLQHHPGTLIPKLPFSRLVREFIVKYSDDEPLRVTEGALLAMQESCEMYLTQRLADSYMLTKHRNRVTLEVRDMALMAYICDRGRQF

T1: GFP-Zw10 (Drosophila) (UniProt Q9W4X9)
T1 sequence: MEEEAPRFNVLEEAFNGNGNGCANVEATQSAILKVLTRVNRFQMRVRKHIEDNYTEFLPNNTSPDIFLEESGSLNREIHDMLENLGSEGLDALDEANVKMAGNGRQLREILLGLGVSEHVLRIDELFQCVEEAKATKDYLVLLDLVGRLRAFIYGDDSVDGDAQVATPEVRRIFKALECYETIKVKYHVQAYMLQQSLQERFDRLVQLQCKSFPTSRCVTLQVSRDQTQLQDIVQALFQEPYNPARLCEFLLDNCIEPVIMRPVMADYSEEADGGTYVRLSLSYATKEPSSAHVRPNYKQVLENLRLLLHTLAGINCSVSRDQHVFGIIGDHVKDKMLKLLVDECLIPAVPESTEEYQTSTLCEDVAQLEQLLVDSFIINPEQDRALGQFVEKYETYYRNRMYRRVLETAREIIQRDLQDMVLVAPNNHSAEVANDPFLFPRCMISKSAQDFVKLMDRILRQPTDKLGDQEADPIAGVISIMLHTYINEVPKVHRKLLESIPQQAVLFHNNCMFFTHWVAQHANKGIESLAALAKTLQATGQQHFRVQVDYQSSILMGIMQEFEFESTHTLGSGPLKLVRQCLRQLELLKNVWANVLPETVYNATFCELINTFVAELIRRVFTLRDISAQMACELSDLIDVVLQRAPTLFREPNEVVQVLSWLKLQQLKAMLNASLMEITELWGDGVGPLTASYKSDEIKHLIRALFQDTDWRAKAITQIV

T2: GST-Zw10 (Drosophila) (UniProt Q9W4X9)
T2 sequence: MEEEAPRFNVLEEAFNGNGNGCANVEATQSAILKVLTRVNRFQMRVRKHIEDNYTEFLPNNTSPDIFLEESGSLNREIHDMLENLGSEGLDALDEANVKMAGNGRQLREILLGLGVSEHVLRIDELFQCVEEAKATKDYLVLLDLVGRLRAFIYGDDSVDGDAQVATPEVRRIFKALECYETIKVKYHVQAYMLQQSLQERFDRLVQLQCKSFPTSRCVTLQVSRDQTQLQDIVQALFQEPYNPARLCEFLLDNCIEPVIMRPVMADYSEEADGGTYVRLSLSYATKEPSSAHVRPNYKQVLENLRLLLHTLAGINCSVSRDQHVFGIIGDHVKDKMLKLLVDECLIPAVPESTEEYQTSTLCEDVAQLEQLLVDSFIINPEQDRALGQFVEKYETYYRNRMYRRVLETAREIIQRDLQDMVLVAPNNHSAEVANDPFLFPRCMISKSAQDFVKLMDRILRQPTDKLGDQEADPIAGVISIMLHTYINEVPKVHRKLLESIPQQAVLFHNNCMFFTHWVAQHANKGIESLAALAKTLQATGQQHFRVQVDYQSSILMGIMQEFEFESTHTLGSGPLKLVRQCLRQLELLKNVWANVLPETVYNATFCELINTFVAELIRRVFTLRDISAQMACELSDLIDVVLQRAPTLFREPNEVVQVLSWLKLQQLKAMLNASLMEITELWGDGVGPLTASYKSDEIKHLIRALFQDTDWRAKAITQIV


Experiments:
GFP-Zw10 (Drosophila) = molecular target: T1, GFP-Zw10 (Drosophila); test: co-IP; GFP-Zw10 isolated from S2 cell lysate with GBP beads; 20 mM Tris-HCl pH 7.5, 1% NP-40, 250 mM NaCl; 2 h at 4°C; immunoblot
GST-Zw10 (Drosophila) = molecular target: T2, GST-Zw10 (Drosophila); test: pull-down; GST or GST-Zw10 coupled beads with 100 ng His-Sumo-CAL1 or His-Sumo-CENP-A; 20 mM Tris pH 8, 150 mM NaCl, 0.5 mM EDTA, 10% glycerol, 0.1% NP-40, 1 mM DTT; 1 h at 4°C; immunoblot; both purified
[1] = molecular target: CAL1 C-terminus (amino acids 680-979), yeast two-hybrid fusion (pMM6) (Drosophila melanogaster) (UniProt Q9VEN2); test: two-hybrid; pMM5 and pMM6 fusion constructs in yeast strain SGY37VIII; CAL1 or CENP-A as bait, SAC proteins as prey; beta-galactosidase activity with X-Gal (blue colour)
[2] = molecular target: CAL1, full-length, yeast two-hybrid fusion (pMM6) (Drosophila melanogaster) (UniProt Q9VEN2); test: as above
[3] = molecular target: CENP-A, yeast two-hybrid fusion (pMM6) (Drosophila melanogaster) (UniProt Q9V6Q2); test: as above

Row | Molecule | binding [1] | binding [2] | further results
1 | CAL1 in lysate of GFP-Zw10 expressing S2 cells (from UniProt Q9VEN2 1-979) | – | – | binding (GFP-Zw10 (Drosophila)): binds
2 | His-Sumo-CAL1 (from UniProt Q9VEN2 1-979) | – | – | binding (GST-Zw10 (Drosophila)): binds
3 | Zw10, full-length, yeast two-hybrid fusion (pMM5) (protein, UniProt Q9W4X9 1-721) MEEEAPRFNVLEEAFNGNGNGCANVEATQSAILKVLTRVNRFQMRVRKHIEDNYTEFLPNNTSPDIFLEESGSLNREIHDMLENLGSEGLDALDEANVKMAGNGRQLREILLGLGVSEHVLRIDELFQCVEEAKATKDYLVLLDLVGRLRAFIYGDDSVDGDAQVATPEVRRIFKALECYETIKVKYHVQAYMLQQSLQERFDRLVQLQCKSFPTSRCVTLQVSRDQTQLQDIVQALFQEPYNPARLCEFLLDNCIEPVIMRPVMADYSEEADGGTYVRLSLSYATKEPSSAHVRPNYKQVLENLRLLLHTLAGINCSVSRDQHVFGIIGDHVKDKMLKLLVDECLIPAVPESTEEYQTSTLCEDVAQLEQLLVDSFIINPEQDRALGQFVEKYETYYRNRMYRRVLETAREIIQRDLQDMVLVAPNNHSAEVANDPFLFPRCMISKSAQDFVKLMDRILRQPTDKLGDQEADPIAGVISIMLHTYINEVPKVHRKLLESIPQQAVLFHNNCMFFTHWVAQHANKGIESLAALAKTLQATGQQHFRVQVDYQSSILMGIMQEFEFESTHTLGSGPLKLVRQCLRQLELLKNVWANVLPETVYNATFCELINTFVAELIRRVFTLRDISAQMACELSDLIDVVLQRAPTLFREPNEVVQVLSWLKLQQLKAMLNASLMEITELWGDGVGPLTASYKSDEIKHLIRALFQDTDWRAKAITQIV | binds | binds | –
4 | Zw10 C-terminus (amino acids 482-721), yeast two-hybrid fusion (pMM5) (domain or fragment, UniProt Q9W4X9 482-721) MLHTYINEVPKVHRKLLESIPQQAVLFHNNCMFFTHWVAQHANKGIESLAALAKTLQATGQQHFRVQVDYQSSILMGIMQEFEFESTHTLGSGPLKLVRQCLRQLELLKNVWANVLPETVYNATFCELINTFVAELIRRVFTLRDISAQMACELSDLIDVVLQRAPTLFREPNEVVQVLSWLKLQQLKAMLNASLMEITELWGDGVGPLTASYKSDEIKHLIRALFQDTDWRAKAITQIV | binds | – | –
5 | Zwilch, yeast two-hybrid fusion (pMM5) (protein, UniProt Q9VA00 1-641) MSASANLANVYAELMRRCGESYTITYGAPPTYLVSMVGAAEAGKKIVLVFKEDRNGAVARLRTTPTRAAPKKEGSADLDLTGSPLKDDCLVDAIADLSIDLQLDHSNPWKLEEEYQRGIPVDKARSIVCSEFLQLAEGLGSVWFLCDGSDLGQTQLLQYEFNPTHFSRGILSYQGVRPAYLVTSQALVRHHGKTPDETLIENSYQVNPHMRLRCSWTSSAALPLLVNLNDCDVALNHTFRVGDCGPLTQDFMNQLRILVYIREDIVSYHTDVKQGVSRDPTYRCGSGIDMDELRESINQTMTDVSGLIGRYSISNAEFDIEDVVQRAKVRQLTDLTDKLWELLKCCHSYKDLKIAFSMLFQCAARCNIVNTPTNKNRLAKIITELANRRLAMPCLSGAEPLELLLEIGLEKLYKDYEFIYTESKMCSTNLLKDDSSGASMDDGSPQNLPQLRKSLHNAVRGDPTPGAGMRKTLLHHHGAVNSRSTKYAGSDDDAGFKNSHFDEHESTERISKLFQIHCTLEHLLMMHIHLNLANVYNDVCSELLKKPPKLVESIDDQLSDVMDIRLSAHYVRDHLDGKDPYSRHITMRSHNKFRELKTTFYFNSENICPPNLAQCFQCDDKEMVKERTYHSWIYHKIRSLK | – | no binding | binding [3]: no binding
